The record followed here is patent publication US20250027930A1, “SMALL MOLECULES FOR REPROGRAMING ANTI-TUMOR IMMUNITY OF T CELLS” (THE SCRIPPS RESEARCH INSTITUTE, priority 2021, published 2025).

One test relates to OT-I splenocytes. In words: OT-I splenocyte culture with KRAS (G12C) inhibitors 9/12 and analogues. It counts as cell-based, mouse. As to conditions: added D0 at 5 uM or D3 at 5 uM or 10 uM, kept till day 7. On the procedure: We performed additional studies to examine the observed activities of KRAS (G12C) inhibitors in modulating T cell properties. First, OT-I splenocytes were activated with OVA257-264 peptide (500 nM) for 3 days in the presence of 60 IU/mL IL-2 and cultured for another 7 days. Inhibitor 9 (i9) or inhibitor 12 (i12) was added on Day0 (D0) upon activation at 5 uM and the concentration was kept till day 7 or added on Day3 (D3) after activation at 5 uM or 10 uM and the concentration was kept till day 7 for analysis.
Other than inhibitors 9 and 12, we also tested activities of two analogues of these KRAS (G12C) inhibitors. The analogues, Z7 and Z6, are derived from Inhibitor 9 and Inhibitor 12, respectively. They have an alkynyl group for click reaction which is used for ABPP analysis to find the targets of the inhibitors (FIG. 18A). In the studies, OT-I splenocytes were activated with OVA257-264 peptide (500 nM) for 3 days in the presence of 60 IU/mL IL-2 and cultured for another 7 days. 5 uM […], i9, z6 or z7 were added on Day0 (DO) upon activation.
As noted above, Inhibitor 9 and Inhibitor 12 have a cysteine-reactive group ([…] and acrylamide) that allows covalent binding of i9 and i12 to a cysteine residue in proteins. We further tested two analogue compounds, ZT-1 and ZT-2, that are not capable of forming the covalent binding. […] Cell number was recorded on day 5 and day 7. […]

The next test concerns HA-28z CAR T cells. Kind of test: HA-28z (GD2) CAR T cell expansion with sugars. As to conditions: 50 mM; CAR T cells day 14. On the procedure:
Human PBMCs were activated with Human T-Expander CD3/cd38 Dynabeads beads at 1:1 ratio for 24 h in T cells medium and then transduced with retroviral vector encoding the disialoganglioside (GD2)-specific14g2a scFv, CD3ζ and CD28 signaling domains (HA-28z). On day 5 after transfection, CD8^+ CAR T cells or CD4^+ CAR T cells were sorted for in vitro expansion with 150 IU/mL TL-2 in the presence or absence of sugars (FIG. 7A).
T cell exhaustion has been increasingly incriminated to cause Chimeric antigen receptor (CAR)-T cell dysfunction, which has raised the prospect that maintaining CAR T cells stemness could improve in vivo response. For example, CAR T cells incorporating the disialoganglioside (GD2)-specific 14g2a scFv, CD3ζ and CD28 signaling domains (GD2-28z) develop profound features of exhaustion including reduced expansion in culture, increased expression of inhibitory receptors during in vitro culture before adoptive transfer, as a result of receptor clustering and tonic signaling caused by scFv self-interactions via an antigen-independent way (see, e.g., Weber et al., Science 372(6537):eaba1786, 2021; and Long et al., Nat. Med. 21(6):581-90, 2015). Here, we constructed HA-28z CAR T cells (FIG. 7A) and cultured the sorted CD8^+ or CD4^+ CAR T cells with sugars (N-acetylglucosamine, GlcNAc 60 mM or N-Acetylneuraminic acid, Neu5Ac 50 mM) for 14 days.

For test [1], the system named is B16-OVA tumors. Kind of test: Adoptive transfer of expanded OVA-specific TILs, tumor control. As to conditions: TILs from B16-OVA tumors expanded in the presence of the sugar; tumor size day 16. The procedure:
To test the effect of sugars during in vitro expansion of tumor-infiltrating T cells, tumors were mechanically dissociated into single cell suspension and TSA-reactive CD8+ tumor-infiltrating T cells were isolated from MC38 or B16-OVA tumors by FucoID (FIG. 6A) or H-2Kb-[…] tetramer staining, respectively, and then expanded using a rapid expansion protocol in the presence of allogenic (BALB/cByJ) splenocytes as feeder cells (feeder cell: T cell=100:1), together with 0.5 ng/mL anti-CD3 and 1500 IU/mL IL-2. Sugars were added at the beginning or during the expansion of the TILs, and kept till the end of expansion. On expansion day 9, phenotypes of the expanded T cells were assessed, and the cells were used for adoptive transfer (FIG. 6E). For adoptive transfer, 0.5 million cells (B16-OVA or MC38) were inoculated subcutaneously on each mouse on day 0, Listeria monocytogenes-OVA (LM-OVA) infection 0.5 million CFU/mice on day 1, and blood analysis was recorded on day 7.

Test [2] deals with B16-OVA tumors. In words: Adoptive transfer of inhibitor 9-expanded OT-I cells into B16-OVA tumor mice. It counts as in vivo, mouse. The settings on record: OT-I cells in vitro expanded with the inhibitor; anti-PD-1 day 14 and day 21. On the procedure: In further studies, 6-7-week-old female C57BL/6J mice were subcutaneously implanted with 6×10^5 B16-OVA cells (day −6). Five days (day −1) after the inoculation of B16-OVA cells, the mice were irradiated with a dose of 5 Gy for lymphodepletion. […] Anti-PD-1 antibody infusions were performed on day 14 and day 21 after the adoptive transfer of OT-I cells with a dose of 100 ug/mouse by IV injection.

Turning to `C=CC(=O)N1CCN(C(=O)CNc2cc(I)c(Cl)cc2O)CC1` [K-Ras(G12C) inhibitor 12], in the test with OT-I splenocytes, the “ratio of progenitor exhausted T cells (Tim-3-TCF-1l)” value is recorded as “significantly increased”.

For the compound `CC(=O)N[C@H]1[C@H]([C@H](O)[C@H](O)CO)OC(O)(C(=O)O)C[C@@H]1O` (stereo partly drawn) [Neu5Ac, N-acetylneuraminic acid], in the test with HA-28z CAR T cells, the “inhibitory receptors (e.g. PD-1, Tim-3) expression” value is “decrease” and the “progenitor exhausted T cells (Tim-3-TCF-1^+)” value was “increase”.

With `OC[C@H]1O[C@@](CO)(O[C@H]2O[C@H](CO)[C@@H](O)[C@H](O)[C@H]2O)[C@@H](O)[C@@H]1O` [Sucrose, sucrose], the “tumor control by adoptively transferred OVA-specific TILs” value in the test on B16-OVA tumors [1] is “higher activities in tumor control”.

Take K-Ras(G12C) Inhibitor 9: the “ratio of progenitor exhausted T cells (Tim-3-TCF-1l)” value in the test with OT-I splenocytes is on record as “significantly increased”. In addition, in the test with B16-OVA tumors [2], the “tumor control and response to PD-1 blockade” value was “improved tumor control and enhanced response to PD-1 blockade”.
